# Patent US20260217837A1, “FGFR3 BINDING MOLECULES AND METHODS OF USE THEREOF” (Regeneron Pharmaceuticals, Inc., priority 2023, published 2026)
# What was measured:
# [1] = test system: UMUC14 cells (FGFR3 S249C); assay: UMUC14 spheroid cell proliferation assay (CellTiter-Glo 3D); format: cell-based, human
# Procedure: Two human bladder cancer cell lines, UMUC14 (Sigma-Aldrich) and RT4 (ATCC), which express an S249C mutation of FGFR3 or express TACC3-FGFR3 fusion mutation, respectively, were maintained in culture according to the suppliers' recommendations. 7500 UMUC14 or 5000 RT4 bladder cancer cells were seeded in U-bottom low attachment 96-well spheroid plate (Corning) in culture medium (MEM medium with 10% FBS, 1% non-essential amino acids, Pen/Strep). Cells were cultured for 24-48 hours at 37° C. 5% CO2 to allow tumor spheroid formation. Tumor spheroids were treated with antibodies at concentrations ranging from 100 nM to 15.2 pM with 1:3 serial dilution as indicated in the figures. Cells were cultured for 5-6 days, and then subjected to CellTiter-Glo 3D viability assays (Promega) following the manufacturer's protocol. Luminescence signal was read on PE Envision plate reader. Cell proliferation was expressed as percentages of untreated controls. Data were analyzed using GraphPad Prism software using three parameter nonlinear curve fit.
# [2] = test system: BaF3 cells expressing FGFR3 S249C; assay: BaF3 cell proliferation, FGFR3 S249C; format: cell-based; conditions: 72 hours, hFGF1 and heparin
# Description: cDNA expressing FGFR3 mutants (S249C, S248C, Y375C, V555M, V555L, S249C+V555M, or S249C+V555L) were synthesized and cloned into pLVX Lenti-viral vector (Thermo Fisher). Viral particles were generated by lipofectamine transfection of LentiX 293T cells using Lenti-X packaging single shots following manufacturer's protocol (Clontech/Takara) and concentrated using Lenti-X concentrator and titer determined using Lenti-X p24 rapid titer kit (Clontech/Takara). BaF3 cells were transduced with virus at ~0.3 MOI. Expression of FGFR3 receptors was confirmed by FACS analysis and western blot.
# For cell proliferation assays, engineered BaF3/hFGFR3 cells grown in complete medium were washed and plated in IL-3-free culture media±5 μg/ml heparin and 1 nM human FGF1. Cells were plated out at 1×10^5 cells/well into 96-well plates, followed by the addition of 1:3 serially diluted antibodies as indicated in figures. After addition of antibodies, cells were incubated at 37° C. for 72 h followed by the addition of CellTiter-Glo™ (Promega) reagent. The luminescent signal was detected by Envision plate reader (PerkinElmer). Data was analyzed using Prism software (GraphPad).
# Heparin has been implicated in disulfide formation between FGFR3 S249C monomers. […] The levels of phospho-MAPK (pMAPK) and total MAPK were determined by western blot as described in Section 8.1.5.
# [3] = test system: BaF3 cells expressing the double mutant FGFR3 S249C+V557M; assay: BaF3 cell viability, FGFR3 S249C+V557M; format: cell-based; conditions: 72 hours, FGF1/heparin
# Description: cDNA expressing FGFR3 mutants (S249C, S248C, Y375C, V555M, V555L, S249C+V555M, or S249C+V555L) were synthesized and cloned into pLVX Lenti-viral vector (Thermo Fisher). Viral particles were generated by lipofectamine transfection of LentiX 293T cells using Lenti-X packaging single shots following manufacturer's protocol (Clontech/Takara) and concentrated using Lenti-X concentrator and titer determined using Lenti-X p24 rapid titer kit (Clontech/Takara). BaF3 cells were transduced with virus at ~0.3 MOI.
# For cell proliferation assays, engineered BaF3/hFGFR3 cells grown in complete medium were washed and plated in IL-3-free culture media±5 μg/ml heparin and 1 nM human FGF1. Cells were plated out at 1×10^5 cells/well into 96-well plates, followed by the addition of 1:3 serially diluted antibodies as indicated in figures. After addition of antibodies, cells were incubated at 37° C. for 72 h followed by the addition of CellTiter-Glo™ (Promega) reagent. The luminescent signal was detected by Envision plate reader (PerkinElmer). Data was analyzed using Prism software (GraphPad). […]
# FGFR3 S249C = molecular target: T1, FGFR3 S249C (Homo sapiens, UniProt P22607, S249C); assay: Western blot, FGFR3 receptor dimerization in UMUC14 cells; format: cell-based; conditions: 33 nM, 3 hours, non-reducing SDS-PAGE
# T1 construct: UMUC14 cells, which endogenously express the FGFR3 S249C mutation; host or cells: UMUC14
# Procedure: For receptor dimerization assessments, UMUC14 bladder cancer cells or BaF3 cells were seeded in 6 well tissue culture plate (Corning) in complete medium (MEM medium with 10% FBS, 1% non-essential amino acids, Glutamine, Pen/Strep) and cultured overnight at 37° C. with 5% CO2. Cells were then serum starved overnight in starvation medium (MEM medium with 0.5% FBS, Pen/Strep) followed by antibody treatment for 3 hours at indicated concentrations. Equal amounts of cell lysates were analyzed by either reducing or non-reducing SDS-PAGE. Membranes were blotted with anti-FGFR3 primary antibody (Santa Cruz) and developed with SuperSignal West Pico substrate (Pierce) and luminescence images were captured with a C300 imager (Azure Biosystems).
# To gain insight into the mechanisms of antiproliferative activity of BiP063N2, effects of antibodies on FGFR3 receptor dimerization, degradation, and downstream signaling were evaluated by western blot as described in Section 8.1.5. UMUC14 cells, which endogenously express the FGFR3 S249C mutation, were treated with indicated antibodies at 33 nM for 3 hours. After treatment, FGFR3 monomers and disulfide-linked dimers were separated via a non-reducing SDS-polyacrylamide gel (FIG. 6A, top). The mobilities of the monomeric and dimeric FGFR3 are indicated.
# monkey FGFR3b = assay: Biacore binding to monkey FGFR3b
# Procedure: Affinity and mechanism of action of binding of anti-FGFR3 antibodies to FGFR3 isoforms were determined by Biacore analysis. In brief, in-house generated monoclonal anti-human Fc antibody was immobilized on the surface of a CM-5 sensor chip. Different concentrations of FGFR3 antibodies were injected at 50 μL/min for 4 min and the assay was performed at 25° C. The mAb binding response was monitored and, for low affinity receptors, steady-state binding equilibrium was calculated. Kinetic association (ka) and dissociation (kd) rate constants were determined by processing and fitting the data to a 1:1 binding model using Scrubber 2.0 curve fitting software. Binding dissociation equilibrium constants (KD) and dissociative half-lives (t1/2) were calculated from the kinetic rate constants using the formula: KD (M)=kd/ka; and t1/2 (min)=(ln2/(60*kd). Some KD values were derived using the steady state equilibrium dissociation constant; When no KD values could be derived, it was marked as NB (no binding observed) or IC (inconclusive affinity determination due to low specific RU signal).
# T1 sequence (P22607 23-808 isoform P22607-2 S249C limits assumed): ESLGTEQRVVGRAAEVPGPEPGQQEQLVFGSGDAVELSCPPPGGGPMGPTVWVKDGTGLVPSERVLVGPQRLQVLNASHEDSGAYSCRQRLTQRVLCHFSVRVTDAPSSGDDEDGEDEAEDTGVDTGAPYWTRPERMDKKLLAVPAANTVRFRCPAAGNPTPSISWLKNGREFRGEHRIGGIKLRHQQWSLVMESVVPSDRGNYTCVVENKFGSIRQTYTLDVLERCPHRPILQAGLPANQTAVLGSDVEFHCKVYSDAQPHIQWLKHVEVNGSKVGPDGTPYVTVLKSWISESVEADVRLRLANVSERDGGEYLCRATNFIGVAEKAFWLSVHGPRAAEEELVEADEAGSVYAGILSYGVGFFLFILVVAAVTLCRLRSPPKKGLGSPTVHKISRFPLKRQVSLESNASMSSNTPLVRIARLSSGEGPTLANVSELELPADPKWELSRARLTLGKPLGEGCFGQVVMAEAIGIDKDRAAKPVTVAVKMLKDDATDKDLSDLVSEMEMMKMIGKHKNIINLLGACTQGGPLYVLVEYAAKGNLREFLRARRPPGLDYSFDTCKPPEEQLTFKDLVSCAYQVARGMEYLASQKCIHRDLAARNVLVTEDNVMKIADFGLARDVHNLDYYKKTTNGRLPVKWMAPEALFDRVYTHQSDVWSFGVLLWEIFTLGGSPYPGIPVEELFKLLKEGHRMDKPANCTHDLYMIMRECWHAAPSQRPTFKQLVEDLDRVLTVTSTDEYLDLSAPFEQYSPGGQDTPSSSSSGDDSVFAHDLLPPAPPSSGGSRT
molecule,measurement,setting,value
"mAb063: parental anti-FGFR3 antibody of BiP063N2, inhibitory; anchor mAb (antibody) heavy: QVQLQESGPGLVKPSETLSLTCTVSGDSINSYFWSWIRQLPGKELEWIGHIYSSGSTRYNPSLQSRVTISIDTSKNQFSLKLSSVTAADTAVYYCARGASAVDYWGQGTLVTVSSASTKGPSVFPLAPCSRSTSESTAALGCLVKDYFPEPVTVSWNSGALTSGVHTFPAVLQSSGLYSLSSVVTVPSSSLGTKTYTCNVDHKPSNTKVDKRV[human IgG4 Fc with S228P (EU numbers) cut from this listing] light: EIVLTQSPGTLSLSPGERATLSCRTSQSISSGYLAWYQQKPGQAPRLLIYGASRRATGIPDRFSGSGSGTDFTLTISRLEPEDFVVYYCQQYGSSPYTFGQGTKLEIKRTVAAPSVFIFPPSDEQLKSGTASVVCLLNNFYPREAKVQWKVDNALQSGNSQESVTEQDSKDSTYSLSSTLTLSKADYEKHKVYACEVTHQGLSSPVTKSFNRGEC",antiproliferative activity in UMUC14 spheroid proliferation assay,"[1]; FGFR3 S249C, 5 to 6 days",potent inhibitory activity
same,"activity on UMUC14 cell proliferation, IgG1 backbone",[1]; IgG1 backbone,complete loss of activity
same,"activity on UMUC14 cell proliferation, IgG4s backbone",[1]; IgG4s backbone,partial
same,proliferation of hFGF1/heparin treated BaF3 cells expressing FGFR3 S249C,[2],able to inhibit the proliferation
same,growth of BaF3 cells expressing FGFR3 S249C+V557M,[3],robustly inhibited the growth
same,FGFR3 S249C receptor dimerization,FGFR3 S249C,potently inhibited receptor dimer formation
same,binding to monkey FGFR3b,"monkey FGFR3b; Biacore, 25 C",shown to bind
same,Kd,"monkey FGFR3b; mfFGFR3b mmh, unit inferred",2.02 nM
